# Source: PubChem BioAssay AID686978 (National Center for Advancing Translational Sciences (NCATS), 2013)
# Values joined by “and” are separate entries in the source; they are usually repeats but may differ in a detail not shown here. Equal entries are not always repeated. About 64,000 (15%) of roughly 420,000 compounds were called active. The inconclusive results got no clear call from the source; some entries with a clear call stand among them for comparison. Calls come from the whole dose curve; as a rule, active = well fitted inhibition curve with a large enough effect; inconclusive = small, poorly fitted or top-dose-only effect; inactive = flat fitted curve, though single readings scatter. A potency beside an inconclusive call is a rough fit, not a confirmed value.
# Experiment: qHTS for Inhibitors of human tyrosyl-DNA phosphodiesterase 1 (TDP1): qHTS in cells in absence of CPT; note: nearly all actives have a fitted effect of over 55% in size
# Settings: DT40 Tdp1-/- hTDP1 cells, no CPT, ATP luminescence, 48 h; activity change, negative = growth inhibition: at 46.2 µM (top of the series) unless noted
# Summary of the method: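 Chicken DT40 Tdp1-/- cells stably complemented with human TDP1 were seeded at 400 cells/well with DMSO in place of 20 nM camptothecin. After compound pinning, cells grew at least 48 hr at 37 °C; viability read by CellTiter-Glo luminescence.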
# % is set by controls: 0 for no effect and ±100 for the full control effect; potency is the fitted concentration of half-maximal effect; tags give direction and shape of the fitted curve.
Compound,Potency,"activity change, negative = growth inhibition"
C/C(=N\NC(=O)c1ccc2c(c1)OCO2)c1ccc2c(c1)OCO2,inactive,–
c1ccc(-c2cn3c4c(sc3n2)CCCC4)cc1,"inconclusive: 16.4 µM [inhibitor, single point] and inconclusive: 20.6 µM [inhibitor, single point]",–
CCN(CC)C(=O)COc1ccc(-c2ccccc2)cc1,"inconclusive: 20.6 µM [inhibitor, single point]",–
CC(=O)c1ccc(NC(=O)COC(=O)CCN2C(=O)c3cccc([N+](=O)[O-])c3C2=O)cc1,inactive,–
Cc1cccc2cc(C#N)c(SCC(=O)Nc3ccccc3N3CCOCC3)nc12,"inconclusive: 29.1 µM [inhibitor, single point]",–
CS(=O)(=O)Nc1ccccc1C(=O)Nc1cccc(Cl)c1,active: 23.1 µM,–
CC1=C(C(=O)Nc2ccccc2)C(c2ccccn2)n2nc(SCc3ccccc3Cl)nc2N1 (configuration not stated),"inconclusive: 20.6 µM [inhibitor, partial curve]",–
CCOC(=O)CS(=O)(=O)c1nc(-c2ccccc2)cc(C(F)(F)F)n1,active: 1.64 µM,–
Oc1c(C(c2cccs2)N2CCN(c3ccc(F)cc3)CC2)sc2ncnn12 (configuration not stated),inactive,–
COc1ccc(C2=NOC(Cn3nc(C(=O)NCc4cccc(Br)c4)cc3-c3ccccc3)C2)cc1 (configuration not stated),"inconclusive: 23.1 µM [inhibitor, single point]",–
CC1CCN(C(=O)C2c3ccccc3C(=O)N3CCc4ccccc4C23)CC1 (configuration not stated),"inconclusive: 32.6 µM [inhibitor, partial curve]",–
CCN(CC)CCN(C(=O)CCOc1ccccc1)c1nc2c(F)cc(F)cc2s1,active: 18.4 µM,–
COc1ccc(-c2noc(CCC(=O)Nc3cccc(C(=O)NC4CC4)c3)n2)cc1OC,"inconclusive: 25.9 µM [inhibitor, single point]",–
O=C(OCC(=O)N1CCOCC1)c1cc(=O)[nH]c2ccccc12,inactive,–
CCN(CC)c1nc(-c2ccccn2)nc(-c2ccccc2)c1C#N,active: 3.26 µM,–
Cc1cccc(CCNC(=O)CCCOc2cc(=O)n(C)c3ccccc23)c1,"inconclusive: 29.1 µM [inhibitor, single point]",–
COc1ccc(OC)c(NC(=O)c2c(NCc3ccc(N(C)C)cc3)sc3c2CCCC3)c1,"inconclusive: 29.1 µM [inhibitor, single point]",–
CC(=O)Nc1ccc(N(C(=O)CNC(=O)c2ccco2)C(C(=O)NCc2ccco2)c2ccccc2)cc1 (configuration not stated),"inconclusive: 29.1 µM [inhibitor, single point]",–
CC(C)OC(=O)CSc1nc2c(c(C3CC=CCC3)c1C#N)CCC2 (configuration not stated),"inconclusive: 20.6 µM [inhibitor, single point]",–
O=C(NCc1ccccc1Cl)c1ccc(NC(=O)N2CCSc3ccccc32)cc1,"inconclusive: 29.1 µM [inhibitor, single point]",–
COc1ccc(S(=O)(=O)N(CC(=O)Nc2ccc3c(c2)OCO3)c2ccc(C)cc2)cc1,"inconclusive: 29.1 µM [inhibitor, single point]",–

Compound,Potency,"activity change, negative = growth inhibition"
COc1ccc(C(=O)N2CCN(c3ccc(NC(=O)c4cccs4)cc3)CC2)cc1,"inconclusive: 16.4 µM [inhibitor, single point]",–
CC(=O)Nc1ccc2nc(NC(=O)c3ccc([N+](=O)[O-])o3)sc2c1,"inconclusive: 10.3 µM [inhibitor, single point]",–
NC(N)=N/N=C/c1ccc2cccc(OCc3ccccc3)c2n1,active: 7.31 µM,–
O=C(c1cc2c(s1)-c1ccccc1S(=O)(=O)C2)N1CCN(Cc2ccccc2)CC1,active: 16.4 µM,–
O=C(CN1C(=O)C2C3C=CC(C3)C2C1=O)Nc1ccc2nccnc2c1 (configuration not stated),"inconclusive: 32.6 µM [inhibitor, single point]",–
CCOC(=O)C1CCCN(C(=O)Cn2cnc3sc(C)c(S(=O)(=O)N4CCOCC4)c3c2=O)C1 (configuration not stated),inactive,–
O=C(CCCc1ccccc1)Nc1ccnn1C1CCN(Cc2ccccc2)CC1,"inconclusive: 29.1 µM [inhibitor, single point]",–
COC(=O)[C@@]1(Cc2ccc(OC)cc2)[C@@H]2C(=CC(=O)[C@H]2CC(=O)C(=O)N2CCCC2)CN1C(=O)c1ccccc1,active: 16.4 µM,–
Cc1onc(-c2c(F)cccc2Cl)c1C(=O)NC(=S)Nc1c(C)n(C)n(-c2ccccc2)c1=O,inactive,–
O=C(NCCCc1ccccc1)c1nn(-c2ccccc2)nc1CO,"inconclusive: 16.4 µM [inhibitor, partial curve, poor fit]",–
COC(=O)C1=C(CN2CCSCC2)NC(=O)NC1c1cc(C)ccc1C (configuration not stated),–,inconclusive: -32.6% [inhibitor]
O=c1cc(CSc2ccc(S(=O)(=O)N3CCCCC3)cn2)nc2sccn12,"inconclusive: 16.4 µM [inhibitor, partial curve]",–
COc1ccc(NS(=O)(=O)Cc2ccccc2)cc1OC,inactive,–
O=C(Nc1cccc([N+](=O)[O-])c1)c1ccc2c(c1)OCO2,"inconclusive: 29.1 µM [inhibitor, single point]",–
Cn1cc(S(=O)(=O)N2CCCCC2)cc1C(=O)Nc1ccc(OC(F)(F)F)cc1,inactive,–
O=C(CN(Cc1ccccc1Cl)C(=O)CNS(=O)(=O)c1ccc(F)cc1)NCC1CCCO1 (configuration not stated),–,inconclusive: -29.8% [inhibitor]
O=C(CSc1nc2ccc(F)cc2c(=O)n1-c1ccccc1)Nc1ccc2c(c1)CCC2,"inconclusive: 18.4 µM [inhibitor, single point]",–
COc1ccc(NC(=O)COC(=O)c2ccc3c(c2)OCCO3)cc1OC,"inconclusive: 29.1 µM [inhibitor, single point]",–
COC(=O)c1ccccc1NC(=S)N(Cc1ccc2c(c1)OCO2)Cc1cc2cccc(C)c2[nH]c1=O,"inconclusive: 23.1 µM [inhibitor, partial curve, poor fit]",–
Cc1c(Cl)cccc1NC(=O)c1ccc(OCC(=O)NCc2ccccc2)cc1,"inconclusive: 18.4 µM [inhibitor, partial curve]",–
Cc1nc2nc(SCC(=O)NC3CCC(C)CC3)nn2c(C)c1Cc1ccccc1Cl (configuration not stated),"inconclusive: 20.6 µM [inhibitor, single point]",–
